# Test results reported in the supplement of paper PMC8728848.
# The other results are listed elsewhere or left out.
# B1: PX14375C-bth-509-28-509 (Bacteroides thetaiotaomicron) (protein)
# chain: RSPQGQFTEDDNPNALVNGKIYNVYTMMRSFDITAGTPAIAIHYLRSEDSEKGSIPSDGSDVAEMYDDFLYTPTNGLLGSYWGKNYAIIYQCNDILDAIAEKETAGQTETEDIINKGEASFFRAYCYFNLVRAFGEVPLVTYKINDASEANIPKTTADKIYEQIDTDLKTAEESLPETWSTEYTGRLTWGAARSLHARTYMMRSDWDNMYKASTDVINKGLYNLKTPYNEIFTDDGENSGGSIFELQCTATAALPQSDVIGSQFCEVQGVRGAGQWDLGWGWHMATQLMADAYETGDPRKNATLLYFRKTDDEPITPENTNEPYGESPISPAMGAYFNKKAYTDPALRKEYTNKGFWVNIRLIRYSDVVLMAAEAANEKNIPGEAVDYLEMVRARARGTNTNILPKITTNDQGELREAIRHERRVELGLEPDRFYDLVRWGIASEVLHAAGKVNYQDKNALLPLPQSEIDKSKGVLVQNPDY
# Assays:
# Test in all cases: glycan array binding signal (z-score within array); higher = stronger binding
# Conditions in all cases: glycan notation: IUPAC condensed, linker removed
# [1] = target: Gal(b1-3)[Fuc(a1-4)]GlcNAc(b1-6)GalNAc
# Outline: (§1)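 Glycan array data came from 3228 arrays in the Consortium for Functional Glycomics database, and only arrays with an available protein sequence were kept. Glycan names were put into IUPAC-condensed notation, and columns mapping to the same glycan were averaged. The binding signal is a within-array Z-score, averaged across arrays of one protein sequence run at different concentrations or buffers and across linkers. A negative Z-score can be read as non-binding.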
# [2] = target: Gal(b1-3)[GlcNAc(b1-6)]GalNAc
# Outline: as §1
# [3] = target: Gal(b1-3)[Neu5Ac(a2-6)]GalNAc
# Outline: as §1
# [4] = target: Gal(b1-3)[Neu5Ac(a2-6)]GlcNAc(b1-4)Gal(b1-4)Glc
# Outline: as §1
# [5] = target: Gal(b1-3)[Neu5Ac(b2-6)]GalNAc
# Outline: as §1
# Gal(b1-4)Gal = target: Gal(b1-4)Gal
# Outline: as §1
# [6] = target: Gal(b1-4)GalNAc(a1-3)[Fuc(a1-2)]Gal(b1-4)GlcNAc
# Outline: as §1
# [7] = target: Gal(b1-4)GalNAc(b1-3)[Fuc(a1-2)]Gal(b1-4)GlcNAc
# Outline: as §1
# Gal(b1-4)Glc = target: Gal(b1-4)Glc
# Outline: as §1
# Gal(b1-4)Glc6S = target: Gal(b1-4)Glc6S
# Outline: as §1
# Gal(b1-4)GlcNAc = target: Gal(b1-4)GlcNAc
# Outline: as §1
# [8] = target: Gal(b1-4)GlcNAc(a1-6)Gal(b1-4)GlcNAc
# Outline: as §1
# Gal(b1-4)GlcNAc(b1-2)Man = target: Gal(b1-4)GlcNAc(b1-2)Man
# Outline: as §1
# [9] = target: Gal(b1-4)GlcNAc(b1-2)Man(a1-3)Man(b1-4)GlcNAc(b1-4)GlcNAc
# Outline: as §1
# [10] = target: Gal(b1-4)GlcNAc(b1-2)Man(a1-3)[Gal(b1-4)GlcNAc(b1-2)Man(a1-6)]Man(b1-4)GlcNAc(b1-4)GlcNAc
# Outline: as §1
# [11] = target: Gal(b1-4)GlcNAc(b1-2)Man(a1-3)[Gal(b1-4)GlcNAc(b1-2)Man(a1-6)]Man(b1-4)GlcNAc(b1-4)[Fuc(a1-6)]GlcNAc
# Outline: as §1
# [12] = target: Gal(b1-4)GlcNAc(b1-2)Man(a1-3)[Gal(b1-4)GlcNAc(b1-2)Man(a1-6)][Gal(b1-4)GlcNAc(b1-4)]Man(b1-4)GlcNAc(b1-4)[Fuc(a1-6)]GlcNAc
# Outline: as §1
# [13] = target: Gal(b1-4)GlcNAc(b1-2)Man(a1-3)[Gal(b1-4)GlcNAc(b1-2)Man(a1-6)][GlcNAc(b1-4)]Man(b1-4)GlcNAc(b1-4)[Fuc(a1-6)]GlcNAc
# Outline: as §1
# [14] = target: Gal(b1-4)GlcNAc(b1-2)Man(a1-3)[GlcNAc(b1-2)Man(a1-6)]Man(b1-4)GlcNAc(b1-4)GlcNAc
# Outline: as §1
# [15] = target: Gal(b1-4)GlcNAc(b1-2)Man(a1-3)[GlcNAc(b1-4)][Gal(b1-4)GlcNAc(b1-2)Man(a1-6)]Man(b1-4)GlcNAc(b1-4)GlcNAc
# Outline: as §1
# [16] = target: Gal(b1-4)GlcNAc(b1-2)Man(a1-3)[Man(a1-6)]Man(b1-4)GlcNAc(b1-4)GlcNAc
# Outline: as §1
# [17] = target: Gal(b1-4)GlcNAc(b1-2)Man(a1-6)Man(b1-4)GlcNAc(b1-4)GlcNAc
# Outline: as §1
# [18] = target: Gal(b1-4)GlcNAc(b1-2)Man(a1-6)[GlcNAc(b1-2)Man(a1-3)]Man(b1-4)GlcNAc(b1-4)GlcNAc
# Outline: as §1
# [19] = target: Gal(b1-4)GlcNAc(b1-2)Man(a1-6)[Man(a1-3)]Man(b1-4)GlcNAc(b1-4)GlcNAc
# Outline: as §1
# [20] = target: Gal(b1-4)GlcNAc(b1-2)[Gal(b1-4)GlcNAc(b1-4)]Man(a1-3)[Gal(b1-4)GlcNAc(b1-2)Man(a1-6)]Man(b1-4)GlcNAc(b1-4)GlcNAc
# Outline: as §1
# [21] = target: Gal(b1-4)GlcNAc(b1-2)[Gal(b1-4)GlcNAc(b1-4)]Man(a1-3)[Gal(b1-4)GlcNAc(b1-2)[Gal(b1-4)GlcNAc(b1-6)]Man(a1-6)]Man(b1-4)GlcNAc(b1-4)GlcNAc
# Outline: as §1
# [22] = target: Gal(b1-4)GlcNAc(b1-2)[Gal(b1-4)GlcNAc(b1-4)]Man(a1-3)[GlcNAc(b1-4)][Gal(b1-4)GlcNAc(b1-2)Man(a1-6)]Man(b1-4)GlcNAc(b1-4)GlcNAc
# Outline: as §1
# [23] = target: Gal(b1-4)GlcNAc(b1-2)[Gal(b1-4)GlcNAc(b1-4)]Man(a1-3)[GlcNAc(b1-4)][Gal(b1-4)GlcNAc(b1-2)[Gal(b1-4)GlcNAc(b1-6)]Man(a1-6)]Man(b1-4)GlcNAc(b1-4)GlcNAc
# Outline: as §1
# [24] = target: Gal(b1-4)GlcNAc(b1-2)[Gal(b1-4)GlcNAc(b1-6)]Man(a1-6)[Gal(b1-4)GlcNAc(b1-2)Man(a1-3)]Man(b1-4)GlcNAc(b1-4)GlcNAc
# Outline: as §1
# [25] = target: Gal(b1-4)GlcNAc(b1-2)[Gal(b1-4)GlcNAc(b1-6)]Man(a1-6)[Gal(b1-4)GlcNAc(b1-2)Man(a1-3)]Man(b1-4)GlcNAc(b1-4)[Fuc(a1-6)]GlcNAc
# Outline: as §1
# [26] = target: Gal(b1-4)GlcNAc(b1-2)[Gal(b1-4)GlcNAc(b1-6)]Man(a1-6)[GlcNAc(b1-4)][Gal(b1-4)GlcNAc(b1-2)Man(a1-3)]Man(b1-4)GlcNAc(b1-4)GlcNAc
# Outline: as §1
# [27] = target: Gal(b1-4)GlcNAc(b1-2)[Gal(b1-4)GlcNAc(b1-6)]Man(a1-6)[GlcNAc(b1-4)][Gal(b1-4)GlcNAc(b1-2)[Gal(b1-4)GlcNAc(b1-4)]Man(a1-3)]Man(b1-4)GlcNAc(b1-4)[Fuc(a1-6)]GlcNAc
# Outline: as §1
# [28] = target: Gal(b1-4)GlcNAc(b1-3)Gal(b1-3)GalNAc
# Outline: as §1
# [29] = target: Gal(b1-4)GlcNAc(b1-3)Gal(b1-3)GlcNAc
# Outline: as §1
# [30] = target: Gal(b1-4)GlcNAc(b1-3)Gal(b1-4)Glc
# Outline: as §1
# [31] = target: Gal(b1-4)GlcNAc(b1-3)Gal(b1-4)GlcNAc
# Outline: as §1
# [32] = target: Gal(b1-4)GlcNAc(b1-3)Gal(b1-4)GlcNAc(b1-2)Man(a1-3)[Gal(b1-4)GlcNAc(b1-3)Gal(b1-4)GlcNAc(b1-2)Man(a1-6)]Man(b1-4)GlcNAc(b1-4)GlcNAc
# Outline: as §1
# [33] = target: Gal(b1-4)GlcNAc(b1-3)Gal(b1-4)GlcNAc(b1-2)Man(a1-3)[Gal(b1-4)GlcNAc(b1-3)Gal(b1-4)GlcNAc(b1-2)Man(a1-6)]Man(b1-4)GlcNAc(b1-4)[Fuc(a1-6)]GlcNAc
# Outline: as §1
binder,measurement,setting,value
B1,glycan array binding signal (z-score),[1],0.282
same,glycan array binding signal (z-score),[2],-0.372
same,glycan array binding signal (z-score),[3],-0.235
same,glycan array binding signal (z-score),[4],-0.26
same,glycan array binding signal (z-score),[5],-0.373
same,glycan array binding signal (z-score),Gal(b1-4)Gal,-0.336
same,glycan array binding signal (z-score),[6],-0.387
same,glycan array binding signal (z-score),[7],-0.406
same,glycan array binding signal (z-score),Gal(b1-4)Glc,-0.374
same,glycan array binding signal (z-score),Gal(b1-4)Glc6S,0.533
same,glycan array binding signal (z-score),Gal(b1-4)GlcNAc,0.233
same,glycan array binding signal (z-score),[8],-0.071
same,glycan array binding signal (z-score),Gal(b1-4)GlcNAc(b1-2)Man,-0.043
same,glycan array binding signal (z-score),[9],-0.289
same,glycan array binding signal (z-score),[10],6.16
same,glycan array binding signal (z-score),[11],2.04
same,glycan array binding signal (z-score),[12],-0.181
same,glycan array binding signal (z-score),[13],-0.247
same,glycan array binding signal (z-score),[14],0.099
same,glycan array binding signal (z-score),[15],-0.007
same,glycan array binding signal (z-score),[16],1.69
same,glycan array binding signal (z-score),[17],0.732
same,glycan array binding signal (z-score),[18],-0.268
same,glycan array binding signal (z-score),[19],-0.165
same,glycan array binding signal (z-score),[20],-0.406
same,glycan array binding signal (z-score),[21],1.28
same,glycan array binding signal (z-score),[22],-0.296
same,glycan array binding signal (z-score),[23],-0.214
same,glycan array binding signal (z-score),[24],-0.111
same,glycan array binding signal (z-score),[25],-0.108
same,glycan array binding signal (z-score),[26],0.464
same,glycan array binding signal (z-score),[27],-0.158
same,glycan array binding signal (z-score),[28],-0.287
same,glycan array binding signal (z-score),[29],-0.374
same,glycan array binding signal (z-score),[30],-0.402
same,glycan array binding signal (z-score),[31],-0.247
same,glycan array binding signal (z-score),[32],4.35
same,glycan array binding signal (z-score),[33],1.31
